The text below walks through data of the BET-seq Pho4 binding data (Le et al. 2018).

The list shows a part of the results. Values were computed here from the reads of four pooled replicates and scatter widely.

In the assay the target is T1, Pho4 (S. cerevisiae) (UniProt P07270).
T1 sequence: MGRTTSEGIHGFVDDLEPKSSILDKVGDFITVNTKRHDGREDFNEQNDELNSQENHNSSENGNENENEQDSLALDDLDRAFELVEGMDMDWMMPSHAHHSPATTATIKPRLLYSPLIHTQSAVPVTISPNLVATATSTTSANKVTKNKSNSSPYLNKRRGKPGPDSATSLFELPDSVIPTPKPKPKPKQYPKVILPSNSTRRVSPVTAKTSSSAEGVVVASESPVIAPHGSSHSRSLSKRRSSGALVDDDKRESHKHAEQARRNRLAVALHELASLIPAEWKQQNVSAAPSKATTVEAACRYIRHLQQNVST
The assay is described as follows: relative binding free energy (BET-seq); higher = weaker binding. The following applies: reference: library average.
Regarding ACTAGCACGTGTATGT, the “relative binding free energy” value was -0.12 kcal/mol. For TTGTACACGTGGGTGT, the “relative binding free energy” value was -0.06 kcal/mol.

In the case of TTGGACACGTGATAAG, the “relative binding free energy” value was found to be 0.3 kcal/mol.

As for CTTACCACGTGGGGGT, the “relative binding free energy” value is -0.23 kcal/mol.

Consider GTGTTCACGTGTATAA, for which the “relative binding free energy” value came out at 0.08 kcal/mol. Then GAGTACACGTGAGGTT, with 0.44 kcal/mol; and AGGCGCACGTGTGTGC, with 0.03 kcal/mol; and AAGTACACGTGTTTGT, with 0.05 kcal/mol.

Consider AAAGTCACGTGGGGTA, for which the “relative binding free energy” value is -0.14 kcal/mol. As for AGGGTCACGTGACGTG, the figure is 0.11 kcal/mol. As to TTTGACACGTGGTAAA, the “relative binding free energy” value was -0.02 kcal/mol. On to TAGGACACGTGGTGAT, for which the “relative binding free energy” value worked out at 0.04 kcal/mol. In the case of GGTCACACGTGGCAGG, the “relative binding free energy” value is 0.13 kcal/mol. Regarding TTAAGCACGTGTACGG, the “relative binding free energy” value was -0.16 kcal/mol. As for CATGTCACGTGGTTTG, the figure is 0.06 kcal/mol; as for GTGCCCACGTGCGGGG, -0.13 kcal/mol; as for AGTGTCACGTGCTAGT, -0.03 kcal/mol. Regarding AAGGGCACGTGTGCGC, the “relative binding free energy” value was -0.13 kcal/mol. Then GTTGCCACGTGAATAG, with 0.39 kcal/mol.

For the sequence CTGTACACGTGTGGGT, the “relative binding free energy” value is 0.12 kcal/mol. Then AATGTCACGTGATGCT, with 0.19 kcal/mol; and CTTATCACGTGTAGGG, with 0.04 kcal/mol. As for AGGGTCACGTGGAAGG, the figure is 0.18 kcal/mol; as for GGTTTCACGTGGCAAG, 0.18 kcal/mol; as for TGTATCACGTGGATCT, 0.18 kcal/mol. Turning to AGTTTCACGTGGGCGA, the “relative binding free energy” value amounted to 0.21 kcal/mol. For TTCACCACGTGTTTGG, the “relative binding free energy” value worked out at 0.09 kcal/mol. Then AAGTCCACGTGAGTTT, with 0.46 kcal/mol; and GTGGTCACGTGCAAAG, with 0.22 kcal/mol. Regarding TCGGCCACGTGTAGTG, the “relative binding free energy” value came to 0.16 kcal/mol. Take GAGGGCACGTGTAGCT: the “relative binding free energy” value was -0.12 kcal/mol. Then ATTGGCACGTGCGCGG, with -0.35 kcal/mol; and AATGTCACGTGTGGGA, with 0.15 kcal/mol.

Regarding TTATTCACGTGGGGCG, the “relative binding free energy” value stood at 0.22 kcal/mol. Then AGTTGCACGTGTGGCT, with 0.01 kcal/mol; and TTTTGCACGTGGCCAG, with -0.04 kcal/mol; and AGTGTCACGTGGATAG, with 0.01 kcal/mol. As for TTATACACGTGGAGGA, the figure is 0.11 kcal/mol; as for TTAACCACGTGGTGTT, -0.05 kcal/mol; as for ACGTTCACGTGATTGT, 0.16 kcal/mol.

For the sequence TGTTGCACGTGTTAGA, the “relative binding free energy” value is 0.02 kcal/mol.

GGTGCCACGTGTGAGG: the “relative binding free energy” value turned out to be 0.02 kcal/mol. Then GTGGGCACGTGACGGG, with 0.09 kcal/mol; and AGTGTCACGTGTAAGT, with 0.23 kcal/mol; and TTATTCACGTGATTGA, with 0.21 kcal/mol. Then TGTTGCACGTGTTTTT, with 0.02 kcal/mol; and GTCATCACGTGAGTGG, with 0.29 kcal/mol; and AAAGTCACGTGAGATG, with 0.19 kcal/mol. As for GTGGTCACGTGACAGT, the figure is 0.18 kcal/mol. For the sequence GGTGGCACGTGTATAG, the “relative binding free energy” value is -0.08 kcal/mol. In the case of AGTTGCACGTGATTAG, the “relative binding free energy” value was 0.08 kcal/mol. For TCAGACACGTGGTGGT, the “relative binding free energy” value is -0.03 kcal/mol. TGTGCCACGTGTGTTG: the “relative binding free energy” value is -0.1 kcal/mol. Consider TGGATCACGTGTTGAA, for which the “relative binding free energy” value stood at 0.22 kcal/mol. Then GGGTCCACGTGGCTGG, with 0.1 kcal/mol. As for ATATACACGTGAGTAT, the “relative binding free energy” value was determined as 0.19 kcal/mol. Take AGAGTCACGTGGGACG: the “relative binding free energy” value was found to be 0.11 kcal/mol.

On to GGGAACACGTGGGGAC, for which the “relative binding free energy” value was 0.05 kcal/mol. As for TTGATCACGTGAATTT, the figure is 0.35 kcal/mol; as for TTCGTCACGTGAATGA, 0.34 kcal/mol; as for TGTATCACGTGTTGTA, 0.09 kcal/mol.

CAGTGCACGTGAGTGT: the “relative binding free energy” value was found to be 0.06 kcal/mol. As for GGTGTCACGTGTGTAA, the figure is 0.12 kcal/mol; as for TTTTGCACGTGGAGAA, 0.08 kcal/mol; as for AAATGCACGTGAGGAT, 0.37 kcal/mol. With CTGGGCACGTGATATA, the “relative binding free energy” value is 0.03 kcal/mol. Regarding AGTAGCACGTGCTTTT, the “relative binding free energy” value was -0.13 kcal/mol.

For the sequence AATGGCACGTGGTGTG, the “relative binding free energy” value is -0.28 kcal/mol. In the case of AAGATCACGTGGGGTA, the “relative binding free energy” value is -0.13 kcal/mol. GGGAACACGTGTCGGG: the “relative binding free energy” value turned out to be 0.14 kcal/mol.

In the case of TATTTCACGTGATGCG, the “relative binding free energy” value was 0.23 kcal/mol. Regarding CATGTCACGTGATTGT, the “relative binding free energy” value was found to be 0.15 kcal/mol.

In the case of CGGGTCACGTGGTGGC, the “relative binding free energy” value is -0.01 kcal/mol. Then GTTAGCACGTGTGATT, with 0.08 kcal/mol. On to AGTTTCACGTGTAGTC, for which the “relative binding free energy” value amounted to 0.26 kcal/mol. Take GGAAACACGTGTTAGT: the “relative binding free energy” value was 0.09 kcal/mol. Then TTATGCACGTGTTGAC, with 0.04 kcal/mol; and GACTGCACGTGGGGGA, with -0.13 kcal/mol; and TAGGTCACGTGTATTC, with 0.13 kcal/mol. As for TTTCGCACGTGGGCAT, the figure is -0.21 kcal/mol; as for ATATACACGTGTAGTT, -0.02 kcal/mol. As for TTTCACACGTGTATAT, the figure is 0.02 kcal/mol; as for GGGTGCACGTGATGGA, 0.08 kcal/mol; as for GATGACACGTGGGGTT, 0.04 kcal/mol. As to TTGATCACGTGTGGGA, the “relative binding free energy” value stood at 0.13 kcal/mol.

In the case of AGTGTCACGTGTATCG, the “relative binding free energy” value came to 0.04 kcal/mol.

On to AGCAGCACGTGTTTTT, for which the “relative binding free energy” value was -0.02 kcal/mol. Turning to CGGTTCACGTGAGAAT, the “relative binding free energy” value is 0.43 kcal/mol. With ATATTCACGTGAGAGT, the “relative binding free energy” value turned out to be 0.19 kcal/mol.

On to CTATCCACGTGGGTGG, for which the “relative binding free energy” value was -0.1 kcal/mol. Take GTAATCACGTGAGAGG: the “relative binding free energy” value was found to be 0.42 kcal/mol. Regarding TTGCTCACGTGCTGTT, the “relative binding free energy” value came to 0.12 kcal/mol. In the case of TGTCGCACGTGAGGGG, the “relative binding free energy” value was 0.19 kcal/mol.

Consider CTAGTCACGTGTTGAA, for which the “relative binding free energy” value is 0.17 kcal/mol. As for AAAATCACGTGGGTGA, the figure is 0.03 kcal/mol; as for CGTAGCACGTGCGTTT, -0.09 kcal/mol. Turning to GTTTTCACGTGTAGCT, the “relative binding free energy” value was 0.33 kcal/mol. As for GCTGACACGTGGGGTT, the figure is 0 kcal/mol. As for TTTCTCACGTGAGGTC, the “relative binding free energy” value is 0.42 kcal/mol. As for TCATGCACGTGGGGAG, the “relative binding free energy” value is -0.2 kcal/mol. Then TCTGGCACGTGACTTG, with 0.04 kcal/mol; and GGGGGCACGTGCATCT, with 0.04 kcal/mol; and GGTGTCACGTGCGAAG, with 0.02 kcal/mol. Then AGGAGCACGTGTTGAT, with -0.35 kcal/mol; and AGGATCACGTGGAGTC, with 0.21 kcal/mol.

Take GTTATCACGTGAGTCG: the “relative binding free energy” value is 0.39 kcal/mol. Take TTTTTCACGTGGCGGC: the “relative binding free energy” value was found to be 0.23 kcal/mol. TAGGTCACGTGTTGGC: the “relative binding free energy” value came out at 0.03 kcal/mol. As for GTAGTCACGTGGGTGA, the figure is 0 kcal/mol; as for CTTGGCACGTGGGGGA, -0.31 kcal/mol; as for TTGCGCACGTGGGGTA, -0.22 kcal/mol. Consider GCTGGCACGTGGAGAG, for which the “relative binding free energy” value is 0.05 kcal/mol. Then GAGGTCACGTGTTACT, with 0.35 kcal/mol; and ATTTACACGTGTGTAA, with 0.08 kcal/mol; and TACAGCACGTGTTAGG, with -0.21 kcal/mol.
